This note sets out measurements from publication PMC4941644.

Chains of the proteins cited; added tags and fusions are not shown. Lines headed by an entry give the natural chain unless they say otherwise; changes in a name come on top. Residues count along the entry.
UniProt P25105: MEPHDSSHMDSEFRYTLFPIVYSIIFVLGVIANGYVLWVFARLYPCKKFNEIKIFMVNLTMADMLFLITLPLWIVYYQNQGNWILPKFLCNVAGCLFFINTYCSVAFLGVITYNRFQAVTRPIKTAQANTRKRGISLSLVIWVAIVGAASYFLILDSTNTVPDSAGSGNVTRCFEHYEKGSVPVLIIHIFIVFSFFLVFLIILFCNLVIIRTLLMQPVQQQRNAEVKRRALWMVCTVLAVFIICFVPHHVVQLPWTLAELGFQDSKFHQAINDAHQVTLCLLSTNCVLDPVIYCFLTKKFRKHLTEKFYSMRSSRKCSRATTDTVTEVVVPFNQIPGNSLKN
311stop PTAFR: residues 1-310 of P25105
UniProt Q14974: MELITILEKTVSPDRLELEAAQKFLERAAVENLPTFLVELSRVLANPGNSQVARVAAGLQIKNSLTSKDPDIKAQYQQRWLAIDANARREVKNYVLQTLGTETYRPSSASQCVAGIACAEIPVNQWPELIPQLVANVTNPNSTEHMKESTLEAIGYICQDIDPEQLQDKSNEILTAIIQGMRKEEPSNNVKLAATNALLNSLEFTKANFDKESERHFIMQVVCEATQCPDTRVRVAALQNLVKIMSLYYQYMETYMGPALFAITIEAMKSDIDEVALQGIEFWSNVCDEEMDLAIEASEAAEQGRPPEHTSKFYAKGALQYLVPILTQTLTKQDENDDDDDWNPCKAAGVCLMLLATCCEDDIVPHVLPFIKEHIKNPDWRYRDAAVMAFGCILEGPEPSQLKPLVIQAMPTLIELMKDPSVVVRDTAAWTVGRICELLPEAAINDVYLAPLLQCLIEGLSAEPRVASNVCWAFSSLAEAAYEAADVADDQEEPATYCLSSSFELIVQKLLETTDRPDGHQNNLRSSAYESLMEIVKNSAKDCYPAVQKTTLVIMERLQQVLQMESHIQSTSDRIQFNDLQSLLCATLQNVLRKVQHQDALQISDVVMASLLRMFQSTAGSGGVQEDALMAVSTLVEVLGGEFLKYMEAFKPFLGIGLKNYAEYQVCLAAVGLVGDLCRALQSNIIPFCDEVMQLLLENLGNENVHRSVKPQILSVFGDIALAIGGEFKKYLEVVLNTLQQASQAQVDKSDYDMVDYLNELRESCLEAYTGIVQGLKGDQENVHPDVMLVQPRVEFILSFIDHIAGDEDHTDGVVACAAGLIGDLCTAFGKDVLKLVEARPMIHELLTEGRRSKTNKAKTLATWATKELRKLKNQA
UniProt P20339: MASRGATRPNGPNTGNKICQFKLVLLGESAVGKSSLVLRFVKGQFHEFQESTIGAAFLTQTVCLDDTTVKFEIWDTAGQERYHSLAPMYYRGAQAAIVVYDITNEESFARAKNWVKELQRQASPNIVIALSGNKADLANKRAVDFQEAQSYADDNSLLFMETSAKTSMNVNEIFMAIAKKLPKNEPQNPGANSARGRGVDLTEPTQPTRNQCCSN
UniProt P51149: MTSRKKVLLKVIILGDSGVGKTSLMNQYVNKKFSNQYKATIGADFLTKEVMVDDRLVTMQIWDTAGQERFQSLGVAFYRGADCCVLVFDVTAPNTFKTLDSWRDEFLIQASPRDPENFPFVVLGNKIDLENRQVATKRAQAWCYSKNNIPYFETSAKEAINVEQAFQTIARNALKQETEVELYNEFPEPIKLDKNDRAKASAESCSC
UniProt P62491: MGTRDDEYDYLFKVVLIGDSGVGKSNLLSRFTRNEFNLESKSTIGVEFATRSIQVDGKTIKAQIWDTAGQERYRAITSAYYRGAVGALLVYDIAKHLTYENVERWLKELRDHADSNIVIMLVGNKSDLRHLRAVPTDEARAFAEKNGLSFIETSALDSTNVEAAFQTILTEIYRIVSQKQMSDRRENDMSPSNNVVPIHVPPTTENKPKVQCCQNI

In assay [1] the target is platelet-activating factor receptor (PTAFR), endogenous in human retinal microvascular endothelial cells (human (endogenous in hRMECs)) (UniProt P25105). The experiment in a line: co-IP; hRMECs without PAF C-16 stimulation (first column of Figure 3a); RIPA lysates (500 ug), primary antibody with Protein A/G PLUS-Agarose overnight at 4 °C.
Assay [2] has the same target. The experiment in a line: co-IP; hRMECs stimulated with PAF C-16 (100 nM), lysed at the indicated time-points; RIPA lysates (500 ug), primary antibody with Protein A/G PLUS-Agarose overnight at 4 °C; PTAFR blotted as loading control of the precipitate.
In assay [3] the target is importin β1 (human (endogenous in hRMECs)) (UniProt Q14974). The experiment in a line: co-IP; hRMEC lysates, co-immunoprecipitation with importin β1 (Supplementary Figure S3B).
For assay [4], the target named is wild-type PTAFR (as compared with the 311stop mutant) (human) (UniProt P25105). The experiment in a line: co-IP; co-immunoprecipitation of IPO5 with wild-type or 311stop PTAFR (Supplementary Figure S3C); cells not given.
The target in assay [5] is 311stop PTAFR (human) (UniProt P25105). The description is as above.

Results are given in words; binding and its absence hold for the method and conditions named. Binding seen in cells or lysates may run through a third protein. Some entries that bind do so weakly or less than the wild type.

Take RAB5A (from UniProt P20339 1-215): the figures for the binding entry in assay [1] and in assay [2] were “no binding (condition: without PAF C-16 stimulation)” and “binds”, respectively.
The matching figures for RAB7A (from UniProt P51149 1-207): “no binding (condition: without PAF C-16 stimulation)” and “binds”.
Turning to RAB11A (from UniProt P62491 1-216), the binding result is given as “binds” in assay [1], “no binding” in assay [3] and “binds” in assay [2].
Regarding “platelet-activating factor receptor (PTAFR), endogenous in human retinal microvascular endothelial cells (from UniProt P25105 1-342)”, in assay [3], the binding result was “no binding”.

B1: importin-5 (protein, UniProt O00410 1-1097)
chain: MAAAAAEQQQFYLLLGNLLSPDNVVRKQAEETYENIPGQSKITFLLQAIRNTTAAEEARQMAAVLLRRLLSSAFDEVYPALPSDVQTAIKSELLMIIQMETQSSMRKKVCDIAAELARNLIDEDGNNQWPEGLKFLFDSVSSQNVGLREAALHIFWNFPGIFGNQQQHYLDVIKRMLVQCMQDQEHPSIRTLSARATAAFILANEHNVALFKHFADLLPGFLQAVNDSCYQNDDSVLKSLVEIADTVPKYLRPHLEATLQLSLKLCGDTSLNNMQRQLALEVIVTLSETAAAMLRKHTNIVAQTIPQMLAMMVDLEEDEDWANADELEDDDFDSNAVAGESALDRMACGLGGKLVLPMIKEHIMQMLQNPDWKYRHAGLMALSAIGEGCHQQMEGILNEIVNFVLLFLQDPHPRVRYAACNAVGQMATDFAPGFQKKFHEKVIAALLQTMEDQGNQRVQAHAAAALINFTEDCPKSLLIPYLDNLVKHLHSIMVLKLQELIQKGTKLVLEQVVTSIASVADTAEEKFVPYYDLFMPSLKHIVENAVQKELRLLRGKTIECISLIGLAVGKEKFMQDASDVMQLLLKTQTDFNDMEDDDPQISYMISAWARMCKILGKEFQQYLPVVMGPLMKTASIKPEVALLDTQDMENMSDDDGWEFVNLGDQQSFGIKTAGLEEKSTACQMLVCYAKELKEGFVEYTEQVVKLMVPLLKFYFHDGVRVAAAESMPLLLECARVRGPEYLTQMWHFMCDALIKAIGTEPDSDVLSEIMHSFAKCIEVMGDGCLNNEHFEELGGILKAKLEEHFKNQELRQVKRQDEDYDEQVEESLQDEDDNDVYILTKVSDILHSIFSSYKEKVLPWFEQLLPLIVNLICPHRPWPDRQWGLCIFDDVIEHCSPASFKYAEYFLRPMLQYVCDNSPEVRQAAAYGLGVMAQYGGDNYRPFCTEALPLLVRVIQSADSKTKENVNATENCISAVGKIMKFKPDCVNVEEVLPHWLSWLPLHEDKEEAVQTFNYLCDLIESNHPIVLGPNNTNLPKIFSIIAEGEMHEAIKHEDPCAKRLANVVRQVQTSGGLWTECIAQLSPEQQAAIQELLNSA
As to B1, the binding result was “binds” in assay [4] and “no binding” in assay [5].
